Not every entry of the source has a single result; some have several. The list is limited to them. The source may hold further records. The values listed for one entry are repeated measurements in other runs, samples, wells, individuals or studies. What stands in brackets tells the records apart. Letters count within one entry.

The assay relates to M. tuberculosis H37Rv with meropenem, growth inhibition. Briefly: M. tuberculosis growth inhibition with meropenem, dose response, H37Rv, set 2 (AID 504702).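 Note: growth read by Alamar Blue after 7 days plus overnight incubation.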

With `COc1ccc2oc(C(=O)Nc3nc4ccccc4[nH]3)c(C)c2c1`, the concentration for half-maximal inhibition (IC50) – broadly, the point on the concentration scale where inhibition reaches its midpoint – was 160 nM [sample A] and 10.5 µM [sample B]. To `CCOC(=O)c1cnc2cc(-c3ccc(C(C)(C)C)cc3)nn2c1N` belongs 180 nM [sample A] and 1.99 µM [sample B].

The values above are taken from PubChem BioAssay AID504702 (Southern Research Specialized Biocontainment Screening …, 2011).
